# Values joined by “and” are separate entries in the source; they are usually repeats but may differ in a detail not shown here. Equal values may be shown once. Active and inactive are the calls of the source. Unless noted, the call rests on the fitted dose curve; in most records, active means well fitted curve in the direction sought with a large enough effect in the repeat runs; inconclusive means weak or mixed curves; inactive means no such curve, though single readings can be large; an effect the other way counts as inactive or inconclusive.
# What was measured:
# [1] = molecular target: Androgen receptor (Homo sapiens) (UniProt P10275); assay: qHTS assay to identify small molecule antagonists of the androgen receptor (AR) signaling pathway (AID 743035; active means well fitted inhibition curve with a large enough effect in the signal ratio in the repeat runs, not every such curve was filed as active; inconclusive means weak or mixed curves, or effect the other way; inactive means no such curve, though single readings can be large or run the other way; the % refers to the signal ratio; on activity change, negative = inhibition: on the % scale 0 is the no-effect control and ±100 the full control effect); details: HEK293 AR-UAS-bla, R1881-stimulated, beta-lactamase FRET, 16 h; activity change, negative = inhibition: at 58.5 µM (top of the series) unless noted
# How it was run: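 Using qHTS, AR-UAS-bla GripTite HEK293 cells received compound, then R1881, and were cultured 16 h at 37C/5% CO2 before a 2 h room-temperature LiveBLAzer B/G FRET substrate step and fluorescence measurement.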
# [2] = molecular target: Androgen receptor (Homo sapiens) (UniProt P10275); assay: qHTS assay to identify small molecule agonists of the androgen receptor (AR) signaling pathway (AID 743036; active means well fitted activation curve with a large enough effect in the signal ratio in the repeat runs, with a control signal flat, not every such curve was filed as active; inconclusive means weak or mixed curves, or effect the other way; inactive means no such curve, though single readings can be large or run the other way; the % refers to the signal ratio); details: HEK293 AR-UAS-bla GripTite, beta-lactamase FRET ratio, 16 h; activation: at 62.4 µM (top of the series) unless noted
# How it was run: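 AR-bla HEK293 cells, 2,000/well; 4 h preincubation 37C/5% CO2; compound (DMSO) 16 h at 37C; LiveBLAzer B/G FRET substrate 2 h RT; fluorescence intensity read-out.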
# [3] = qHTS assay to identify small molecule antagonists of the androgen receptor (AR) signaling pathway using the MDA cell line - cell viability counter screen (AID 743041; further: nearly all actives have a fitted effect of over 45% in size; on viability change, negative = cytotoxic: on the % scale 0 is the no-effect control and ±100 the full control effect); details: MDA-kb2 viability, CellTiter-Fluor, 16 h, cells co-treated with R1881 androgen agonist; viability change, negative = cytotoxic: at 70.3 µM (top of the series) unless noted
# How it was run: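 Same-well cytotoxicity was assessed by CellTiter-Fluor in MDA-kb2 AR-luc cells after 16 h of compound treatment under R1881 agonism.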
# [4] = qHTS assay to identify small molecule antagonists of the thyroid receptor (TR) signaling pathway - cell viability counter screen (AID 743064); details: GH3.TRE-Luc viability, CellTiter-Fluor, 24 h; activity change, negative = cytotoxic: at 70.3 µM (top of the series); further: nearly all actives have a fitted effect of over 50% in size; on activity change, negative = cytotoxic: on the % scale 0 is the no-effect control and ±100 the full control effect
# How it was run: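 GH3.TRE-Luc cells, 4 h pre-plating; cpd + T3 1 nM final; 37 °C 23.5 h; CellTiter-Fluor 30 min; fluorescence read.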
# [5] = molecular target: Estrogen receptor (Homo sapiens) (UniProt P03372); assay: qHTS assay to identify small molecule antagonists of the estrogen receptor alpha (ER-alpha) signaling pathway (AID 743069; active means well fitted curve in the direction sought with a large enough effect in the signal ratio in the repeat runs, not every such curve was filed as active; inconclusive means weak or mixed curves, or effect the other way; inactive means no such curve, though single readings can be large or run the other way; the % refers to the signal ratio; on activity, negative = inhibition: on the % scale 0 is the no-effect control and ±100 the full control effect); details: HEK293 ER-alpha-UAS-bla, beta-lactamase ratio, antagonist mode; activity, negative = inhibition: at 69.4 µM (top of the series)
# How it was run: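 Reporter cells (ER-alpha-bla, HEK293 background) are conditioned overnight in stripped-serum medium (2% charcoal-stripped FBS). Compound and 17beta-estradiol exposure runs 18 hr at 37C, 5% CO2.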
# [6] = qHTS assay to identify small molecule antagonists of the estrogen receptor alpha (ER-alpha) signaling pathway - cell viability counter screen (AID 743074; calls by dose curve;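 further: HEK293 cells carrying ER-alpha-UAS-bla reporter stimulated with 17beta-estradiol; nearly all actives have a fitted effect of over 45% in size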)
# [7] = molecular target: Aryl hydrocarbon receptor (Homo sapiens) (UniProt P35869); assay: qHTS assay to identify small molecule that activate the aryl hydrocarbon receptor (AhR) signaling pathway (AID 743085); further: nearly all actives have a fitted effect of over 15% in size
# How it was run: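 Luminescence read-out: ONE-Glo reagent, 30 min at room temperature, in HG2L7.5c1 HepG2 reporter cells treated 24 h at 37C. Viability was measured beforehand by CellTiter-Fluor fluorescence after 30 min at 37C.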
# [8] = qHTS assay to identify small molecule antagonists of the thyroid receptor (TR) signaling pathway (AID 743065); further: nearly all actives have a fitted effect of over 55% in size
# How it was run: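 GH3.TRE-Luc rat pituitary cells (two TREs driving luciferase) were dosed with compound, then stimulated with 1 nM T3 (final) for 23.5 h at 37 C. ONE-Glo luminescence was the read-out, with CellTiter-Fluor fluorescence as the cytotoxicity counter-screen.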
# [9] = molecular target: Estrogen receptor (Homo sapiens) (UniProt P03372); assay: qHTS assay to identify small molecule agonists of the estrogen receptor alpha (ER-alpha) signaling pathway using the BG1 cell line (AID 743079); details: BG1Luc4E2 cells, ERE-luciferase agonist, 22 h; activation: at 70.3 µM (top of the series) unless noted; further: nearly all actives have a fitted effect of over 20% in size
# [10] = qHTS assay to identify small molecule antagonists of the estrogen receptor alpha (ER-alpha) signaling pathway using the BG1 cell line (AID 743080; calls by dose curve;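 further: BG1 cells stimulated with 17beta-estradiol alongside compound; nearly all actives have a fitted effect of over 25% in size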); details: BG1Luc4E2 ERE-luciferase antagonist mode, luminescence; activity change, negative = inhibition: at 70.3 µM (top of the series) unless noted
# How it was run: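 BG1Luc4E2, endogenous ER-alpha, 4xERE-luc; 5 d charcoal-stripped FBS, phenol red free; 24 h plating; cpd + 17beta-estradiol 21.5 h, 37 C/5% CO2; CellTiter-Fluor viability 30 min, then ONE-Glo luciferase 30 min RT.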
# [11] = qHTS assay to identify aromatase inhibitors - cell viability counter screen (AID 743084);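 further: cells stimulated with testosterone during compound exposure; nearly all actives have a fitted effect of over 55% in size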
# [12] = molecular target: Peroxisome proliferator-activated receptor gamma (Homo sapiens) (UniProt P37231); assay: qHTS assay to identify small molecule agonists of the peroxisome proliferator-activated receptor gamma (PPARg) signaling pathway (AID 743094; active means well fitted activation curve with a large enough effect in the signal ratio in the repeat runs, not every such curve was filed as active; inconclusive means weak or mixed curves, or effect the other way; inactive means no such curve, though single readings can be large or run the other way; the % refers to the signal ratio); details: HEK293H PPARg-UAS-bla, beta-lactamase FRET ratio, 17 h; activation: at 57 µM (top of the series) unless noted
# How it was run: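 Following 5 h plating at 37C, PPARg-bla HEK293H cells receive compound or DMSO for 17 h; fluorescence intensity is recorded after LiveBLAzer B/G loading for 1 h at room temperature.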
# [13] = molecular target: Peroxisome proliferator-activated receptor gamma (Homo sapiens) (UniProt P37231); assay: qHTS assay to identify small molecule antagonists of the peroxisome proliferator-activated receptor gamma (PPARg) signaling pathway (AID 743191; calls by dose curve; further: nearly all actives have a fitted effect of over 30% in size); details: HEK293H PPARg-UAS-bla, beta-lactamase ratio, antagonist, 17 h; ratio activity, negative = inhibition: at 62.6 µM (top of the series) unless noted
# How it was run: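 GeneBLAzer PPARg UAS-bla HEK293H cells, 5 h post-plating, exposed to compounds 17 h at 37C. LiveBLAzer B/G FRET substrate added for 1 h at room temperature; beta-lactamase reporter read by fluorescence intensity.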
# [14] = molecular target: Estrogen receptor (Homo sapiens) (UniProt P03372); assay: qHTS assay to identify small molecule agonists of the estrogen receptor alpha (ER-alpha) signaling pathway (AID 743075; calls by dose curve;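 further: HEK293 GripTite cells with ER-alpha and UAS-driven beta-lactamase reporter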); details: HEK293 ER-alpha-UAS-bla, beta-lactamase FRET ratio, 18 h; activation: at 70.1 µM (top of the series)
# [15] = qHTS assay to identify small molecule antagonists of the estrogen receptor alpha (ER-alpha) signaling pathway using the BG1 cell line - cell viability counter screen (AID 743081);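 further: compound given together with 17beta-estradiol as the ER stimulus; nearly all actives have a fitted effect of over 45% in size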
# [16] = molecular target: Androgen receptor (Homo sapiens) (UniProt P10275); assay: qHTS assay to identify small molecule antagonists of the androgen receptor (AR) signaling pathway using the MDA cell line (AID 743042; further: nearly all actives have a fitted effect of over 55% in size)
# How it was run: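 MDA-kb2 breast carcinoma cells carrying MMTV-luciferase (AR/GR responsive) were co-treated with compounds and the agonist R1881 for 16 h at 37C. Inhibition read as ONE-Glo luminescence; CellTiter-Fluor fluorescence measured in parallel for cytotoxicity.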
# [17] = system: thyroid hormone receptor (rat, GH3 cells); assay: qHTS assay to identify small molecule agonists of the thyroid receptor (TR) signaling pathway (AID 743066; calls by dose curve); details: GH3.TRE-Luc cells, TR agonist luciferase, 24 h; activation: at 83.9 µM (top of the series) unless noted
# [18] = qHTS assay to identify small molecule that activate the aryl hydrocarbon receptor (AhR) signaling pathway - cell viability counter screen (AID 743086); further: nearly all actives have a fitted effect of over 45% in size
# How it was run: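 HepG2-AhR-luc (HG2L7.5c1) cells, 4000/well, treated 24 h at 37 C with compound; viability measured as CellTiter-Fluor fluorescence after 30 min in the same wells as the luciferase read.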
# Potency means the concentration at half of the fitted maximal effect; tags describe the fitted curve by direction and shape or compound fluorescence and quenching.
# Sequence of UniProt P03372 (P03372 whole entry, looked up): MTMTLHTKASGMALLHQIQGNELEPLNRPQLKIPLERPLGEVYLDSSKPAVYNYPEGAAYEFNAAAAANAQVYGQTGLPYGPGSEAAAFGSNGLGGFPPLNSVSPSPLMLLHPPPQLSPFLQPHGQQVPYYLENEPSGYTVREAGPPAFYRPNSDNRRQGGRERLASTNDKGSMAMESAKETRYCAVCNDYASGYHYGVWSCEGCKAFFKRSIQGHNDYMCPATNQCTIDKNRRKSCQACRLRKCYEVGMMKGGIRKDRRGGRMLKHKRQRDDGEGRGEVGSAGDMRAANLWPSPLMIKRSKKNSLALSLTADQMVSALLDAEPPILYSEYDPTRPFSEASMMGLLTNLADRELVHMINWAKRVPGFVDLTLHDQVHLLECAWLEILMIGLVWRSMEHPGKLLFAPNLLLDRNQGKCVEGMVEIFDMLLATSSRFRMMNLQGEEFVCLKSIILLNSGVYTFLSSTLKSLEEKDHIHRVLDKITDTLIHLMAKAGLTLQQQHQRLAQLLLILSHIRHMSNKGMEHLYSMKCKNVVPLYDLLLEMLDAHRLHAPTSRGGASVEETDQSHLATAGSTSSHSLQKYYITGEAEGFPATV
# Sequence of UniProt P37231 (P37231 whole entry, looked up): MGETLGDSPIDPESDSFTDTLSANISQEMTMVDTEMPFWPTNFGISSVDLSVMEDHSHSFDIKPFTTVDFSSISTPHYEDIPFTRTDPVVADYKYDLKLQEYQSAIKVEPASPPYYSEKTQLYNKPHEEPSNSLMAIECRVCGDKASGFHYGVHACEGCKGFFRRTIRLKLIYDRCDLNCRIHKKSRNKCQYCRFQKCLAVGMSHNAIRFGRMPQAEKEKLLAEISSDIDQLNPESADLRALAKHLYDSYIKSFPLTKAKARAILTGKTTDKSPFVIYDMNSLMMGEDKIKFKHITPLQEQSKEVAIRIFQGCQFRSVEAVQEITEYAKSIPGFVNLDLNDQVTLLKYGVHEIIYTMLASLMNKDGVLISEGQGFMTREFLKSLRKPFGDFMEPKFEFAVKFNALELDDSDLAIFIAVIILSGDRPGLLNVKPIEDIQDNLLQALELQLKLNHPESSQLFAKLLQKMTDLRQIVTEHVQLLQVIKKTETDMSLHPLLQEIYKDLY
# Sequence of UniProt P10275 (P10275 whole entry, looked up): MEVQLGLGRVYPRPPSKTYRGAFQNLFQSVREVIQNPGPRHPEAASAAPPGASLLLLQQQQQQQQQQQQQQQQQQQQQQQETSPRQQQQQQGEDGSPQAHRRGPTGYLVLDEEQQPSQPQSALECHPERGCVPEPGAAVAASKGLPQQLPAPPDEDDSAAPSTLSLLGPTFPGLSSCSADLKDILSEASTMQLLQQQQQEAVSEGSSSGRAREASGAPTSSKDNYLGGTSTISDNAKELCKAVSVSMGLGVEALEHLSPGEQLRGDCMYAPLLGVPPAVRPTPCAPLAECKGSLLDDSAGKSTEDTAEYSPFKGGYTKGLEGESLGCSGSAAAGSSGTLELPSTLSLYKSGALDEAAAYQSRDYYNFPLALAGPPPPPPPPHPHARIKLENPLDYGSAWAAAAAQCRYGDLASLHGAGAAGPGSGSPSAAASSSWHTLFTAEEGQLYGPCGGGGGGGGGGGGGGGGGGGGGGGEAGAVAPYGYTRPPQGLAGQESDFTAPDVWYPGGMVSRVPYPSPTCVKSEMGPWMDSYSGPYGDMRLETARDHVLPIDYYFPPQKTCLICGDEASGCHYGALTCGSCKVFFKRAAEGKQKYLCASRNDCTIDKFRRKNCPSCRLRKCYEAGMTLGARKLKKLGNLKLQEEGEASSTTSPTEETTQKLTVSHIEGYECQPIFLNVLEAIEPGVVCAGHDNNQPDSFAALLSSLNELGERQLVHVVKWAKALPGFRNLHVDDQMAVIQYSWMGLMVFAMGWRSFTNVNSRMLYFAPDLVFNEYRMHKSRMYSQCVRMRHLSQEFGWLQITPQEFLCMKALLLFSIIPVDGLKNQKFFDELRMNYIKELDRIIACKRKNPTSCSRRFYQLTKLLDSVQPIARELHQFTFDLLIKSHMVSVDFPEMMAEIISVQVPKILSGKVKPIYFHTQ
# Sequence of UniProt P35869 (P35869 whole entry, looked up): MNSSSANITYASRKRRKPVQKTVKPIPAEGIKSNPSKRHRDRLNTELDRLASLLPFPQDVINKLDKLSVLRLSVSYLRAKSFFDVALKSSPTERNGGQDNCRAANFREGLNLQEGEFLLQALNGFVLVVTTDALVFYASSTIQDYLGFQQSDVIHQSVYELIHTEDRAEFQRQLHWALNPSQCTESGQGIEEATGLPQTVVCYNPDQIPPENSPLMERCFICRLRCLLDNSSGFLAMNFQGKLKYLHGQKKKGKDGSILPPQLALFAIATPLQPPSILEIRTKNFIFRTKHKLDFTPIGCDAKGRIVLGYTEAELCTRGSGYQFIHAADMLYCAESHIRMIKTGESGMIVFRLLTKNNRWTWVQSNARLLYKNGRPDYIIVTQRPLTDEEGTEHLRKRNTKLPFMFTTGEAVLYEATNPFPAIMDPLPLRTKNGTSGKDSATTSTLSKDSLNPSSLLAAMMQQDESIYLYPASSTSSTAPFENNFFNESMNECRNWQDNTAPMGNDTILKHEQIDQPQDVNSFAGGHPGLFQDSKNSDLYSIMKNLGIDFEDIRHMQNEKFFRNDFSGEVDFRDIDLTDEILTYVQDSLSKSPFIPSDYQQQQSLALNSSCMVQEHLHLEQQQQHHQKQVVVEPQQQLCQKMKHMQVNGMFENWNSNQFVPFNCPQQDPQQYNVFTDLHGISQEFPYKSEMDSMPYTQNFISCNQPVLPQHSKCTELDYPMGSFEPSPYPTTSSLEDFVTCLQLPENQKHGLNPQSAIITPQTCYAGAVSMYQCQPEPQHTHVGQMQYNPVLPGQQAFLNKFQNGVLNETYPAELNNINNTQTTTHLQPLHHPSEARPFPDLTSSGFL
compound,measurement,setting,value
CNC(=O)Oc1ccccc1C1OCCO1,Potency,[1],"inconclusive: 38.7 µM [rising, partial curve, poor fit]"
same,Potency,[2],"inconclusive: 54.7 µM [rising, partial curve, poor fit]"
same,Potency,[3],inactive
same,Potency,[4],inactive
same,Potency,[5],inactive
same,Potency,[6],"inconclusive: 48.7 µM [rising, partial curve, poor fit]"
same,Potency,[7],"inconclusive: 60.8 µM [activator, partial curve, poor fit]"
CC(=O)O[C@H]1CC[C@@]2(C)C(=CC[C@@H]3[C@@H]2CC[C@]2(C)C(=O)CC[C@@H]32)C1,Potency,[1],"inconclusive: 9.77 µM [falling, partial curve]"
same,"activity change, negative = inhibition",[1],inconclusive: -35.5% [at 27 µM]
same,Potency,[8],"inconclusive: 12.7 µM [inhibitor, partial curve, poor fit]"
same,Potency,[5],"inconclusive: 1.62 µM [activator, full curve] and inconclusive: 19.5 µM [fluorescent, full curve, poor fit]"
same,Potency,[9],active: 320 nM and active: 86.3 nM
same,Potency,[10],"inconclusive: 0.686 µM [rising, full curve, poor fit]"
same,Potency,[11],"inconclusive: 77 µM [cytotoxic, single point]"
same,activation,[12],inconclusive: -9.25%
same,Potency,[13],"inconclusive: 6.92 µM [activator, full curve, poor fit]"
N#Cc1sc2c(=O)c3ccccc3c(=O)c=2sc1C#N,Potency,[1],active: 9.77 µM
same,activation,[2],inconclusive: -8.15%
same,Potency,[3],active: 1.37 µM
same,Potency,[4],active: 24.3 µM
same,Potency,[5],inconclusive: 54.9 µM
same,Potency,[6],active: 54.9 µM
same,Potency,[14],inconclusive: 54.9 µM
same,Potency,[9],"inconclusive: 5.45 µM [inhibitor, full curve]"
same,Potency,[10],"inconclusive: 9.69 µM [falling, full curve]"
same,Potency,[15],active: 27.3 µM
same,Potency,[13],active: 12.3 µM
CCO/N=C(\CC)C1=C(O)CC(c2c(C)cc(C)cc2C)CC1=O (stereo not given),Potency,[1],"inconclusive: 1.95 µM [rising, full curve]"
same,Potency,[2],inconclusive: 21.9 µM
same,Potency,[16],inconclusive: 68.5 µM [inhibitor]
same,Potency,[4],inconclusive: 72.7 µM [cytotoxic]
same,Potency,[8],inconclusive: 34.4 µM [inhibitor]
same,Potency,[5],"inconclusive: 8.7 µM [activator, full curve]"
same,Potency,[15],"inconclusive: 0.685 µM [rising, full curve]"
same,Potency,[12],"inconclusive: 0.0489 µM [falling, full curve, poor fit]"
same,Potency,[13],"inconclusive: 54.9 µM [fluorescent, single point]"
CC(=O)[O][Pb]([c]1ccccc1)([c]1ccccc1)[c]1ccccc1,Potency,[1],"inconclusive: 9.77 µM [falling, full curve]"
same,Potency,[2],"inconclusive: 21.9 µM [falling, full curve]"
same,Potency,[3],active: 1.72 µM
same,Potency,[17],"inconclusive: 0.243 µM [inhibitor, partial curve, poor fit]"
same,Potency,[5],active: 54.9 µM [cytotoxic]
same,Potency,[6],active: 6.92 µM
same,Potency,[14],active: 49 µM [inconclusive]
same,Potency,[9],"inconclusive: 0.686 µM [inhibitor, full curve]"
same,Potency,[10],"inconclusive: 0.193 µM [rising, full curve]"
same,Potency,[15],active: 10.9 µM
same,Potency,[7],inactive
same,Potency,[18],active: 3.86 µM
same,Potency,[12],"inconclusive: 1.23 µM [fluorescent, full curve]"
same,Potency,[13],"inconclusive: 0.219 µM [rising, partial curve]"
CC1(C)CN=C(NN=C(/C=C/c2ccc(C(F)(F)F)cc2)/C=C/c2ccc(C(F)(F)F)cc2)NC1,Potency,[1],inconclusive: 24.5 µM
same,Potency,[2],"inconclusive: 27.5 µM [cytotoxic, partial curve]"
same,Potency,[3],"inconclusive: 68.6 µM [cytotoxic, single point]"
same,Potency,[16],"inconclusive: 61.1 µM [inhibitor, partial curve]"
same,Potency,[8],active: 12.2 µM
same,Potency,[5],active: 49 µM [cytotoxic]
same,Potency,[6],active: 43.6 µM
same,Potency,[14],"inconclusive: 38.9 µM [cytotoxic, partial curve]"
same,Potency,[9],active: 3.06 µM
same,Potency,[10],inconclusive: 61.1 µM
same,Potency,[15],active: 61.1 µM
same,Potency,[7],active: 1.22 µM
same,Potency,[18],active: 27.3 µM
same,Potency,[12],"inconclusive: 12.3 µM [cytotoxic, full curve]"
same,Potency,[13],"inconclusive: 19.5 µM [cytotoxic, partial curve]"
